Measured values as given in the supplement of paper PMC3334620.
Over roughly 33,000 sequences, “E-score (-0.5 to 0.5)” has its median near -0.043; the highest 2% begin near 0.37. The list shows a part of the results.

molecular target: T1, Upc2 (UniProt Q12151); test: PBM E-score (8-mer binding enrichment) (E-score (-0.5 to 0.5)); higher = stronger / more preferred TF binding; most listed sequences are background and not binding sites; settings: protein concentration: 200 nM; construct: GST-full length
T1 sequence: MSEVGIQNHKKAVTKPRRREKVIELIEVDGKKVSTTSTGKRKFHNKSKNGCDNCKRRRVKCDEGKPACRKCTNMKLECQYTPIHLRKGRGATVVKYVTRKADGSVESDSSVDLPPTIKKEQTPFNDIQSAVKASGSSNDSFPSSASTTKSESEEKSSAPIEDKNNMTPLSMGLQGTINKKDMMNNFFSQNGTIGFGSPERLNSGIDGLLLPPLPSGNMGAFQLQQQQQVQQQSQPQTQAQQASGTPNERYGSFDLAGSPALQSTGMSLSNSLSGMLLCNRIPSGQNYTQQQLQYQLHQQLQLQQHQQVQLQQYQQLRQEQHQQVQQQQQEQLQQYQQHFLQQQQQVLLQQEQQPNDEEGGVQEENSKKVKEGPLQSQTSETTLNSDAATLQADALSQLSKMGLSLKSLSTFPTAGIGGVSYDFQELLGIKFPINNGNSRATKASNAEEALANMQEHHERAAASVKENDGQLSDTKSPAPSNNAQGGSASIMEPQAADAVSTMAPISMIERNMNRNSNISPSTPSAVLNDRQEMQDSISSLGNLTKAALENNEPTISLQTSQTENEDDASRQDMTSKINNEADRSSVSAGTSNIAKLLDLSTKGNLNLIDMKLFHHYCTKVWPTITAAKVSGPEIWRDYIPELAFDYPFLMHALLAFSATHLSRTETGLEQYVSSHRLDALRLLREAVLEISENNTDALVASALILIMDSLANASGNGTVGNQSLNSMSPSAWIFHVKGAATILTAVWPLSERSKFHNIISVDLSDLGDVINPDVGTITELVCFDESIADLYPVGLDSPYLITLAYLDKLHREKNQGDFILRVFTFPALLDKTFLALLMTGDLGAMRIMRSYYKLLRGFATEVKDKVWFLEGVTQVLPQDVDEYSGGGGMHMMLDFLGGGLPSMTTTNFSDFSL
Summary of the method: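 E-scores (a modified Wilcoxon-Mann-Whitney statistic) were assigned by the Universal PBM Analysis Suite to every ungapped eight-base word pooled with its reverse complement. The input came from universal all-10-mer Agilent arrays made double-stranded by primer extension and probed with GST-tagged yeast transcription factors at about 100-200 nM. Fluorescent anti-GST detected bound protein, and masliner normalised the scans.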

Sequence	PBM E-score
CGGCGGGA	-0.0655
AAGGAATA	0.0137
CCAAAGAG	-0.192
AAATAACC	-0.205
AATTTTGG	-0.107
GAGGTGAA	-0.0208
AGTCGTCA	-0.167
GGCAAAAA	-0.0254
AAAACGCG	0.193
ACATCTCT	-0.0876
AACATTTG	-0.162
CTAGCTTC	-0.105
CGCCAGTA	0.0729
GATCGTAC	0.442
AAGGTCCG	-0.0279
GATTCGCC	-0.077
CAGTTTCC	-0.137
TGGCCAAA	-0.0519
ACCACCTC	-0.111
GGAGGGTA	-0.131
CCCTACAA	-0.101
CTGTAAAC	0.192

Sequence	PBM E-score
TAGAGGGA	-0.246
CGTATACC	0.472
CTTCCCTC	-0.113
ACCTCCCT	-0.0856
ACGCCACA	-0.0305
CGGCATCC	-0.0064
AAGCAGGT	-0.185
ACCGGAGC	-0.234
CGAATACG	0.356
CAACCTCG	0.196
GCCTGACA	-0.273
CTATCTAC	-0.0129
TACCAACA	-0.0541
TCTGTGCA	-0.191
TGGAGAAA	-0.186
CCAATCTA	-0.0225
AATCCCGC	-0.0423
AGTAAGTC	-0.0547
ACCCGGAT	-0.0814
ACACGGCG	-0.0227
CGGACCAG	0.0553
CAAAGCGC	-0.0826

Sequence	PBM E-score
ATGAATGG	-0.164
CGCAATTC	0.0807
ACGCGTAA	0.237
AGGCTCAA	-0.335
AACCTCAT	-0.154
GCAACAGA	-0.121
ATCCCGCC	-0.0625
ACCACAGG	-0.203
GGCTATAA	0.0327
AGATAGAT	-0.184
ATCCTTAG	-0.132
ATCTCACG	0.0026
CAAAAGGC	-0.132
TTAAACAA	-0.0742
CATCCGGG	-0.139
CATTTTCC	0.0262
GGCACGCC	-0.19
AATGAACA	0.00069
CGGCCACA	-0.173
GCATGCTA	-0.083
ACGACCCA	0.283
ATGTATAC	0.263

Sequence	PBM E-score
CATTGATC	-0.0522
GAACTTTA	-0.0462
CGGGCCTA	-0.18
GACGAGCC	-0.00056
CTGATGCC	-0.0983
CTTTCTCC	-0.0597
CTAATCAC	-0.0142
ACTACATA	-0.225
AACCGCAA	-0.0323
GTCTCTAA	-0.0818
CCAAAGCC	-0.0521
CCGTCTAG	-0.196
ACACAGTC	0.00912
CTCATGGC	-0.168
TAGCTATA	0.05
GCCCTAAC	-0.211
AAGGACTG	-0.192
GTTCCCGA	0.257
CAGCACCC	-0.163
GCTGGCAC	-0.278
